Data set [1] in a line: Tmax in Sprague-Dawley rat brain at 10 mg/kg, ip measured upto 4 hrs by LC-MS/MS analysis. The class given is ADME, organism-based. The following applies: in vivo.
A further data set relates to Mus musculus. The experiment in a line: Antinociceptive activity in ip dosed B6129F1 mouse on day 1. It is filed as functional. The following applies: B6129F1, 24 h.
The nature of data set [2]: Apparent permeability coefficient in Sprague-Dawley rat brain at 10 mg/kg, ip measured upto 4 hrs by LC-MS/MS analysis. The class given is ADME, organism-based.
The target of data set [3] is T1, Prostaglandin G/H synthase 2 (Homo sapiens, UniProt P35354).
T1 sequence (P35354 whole entry): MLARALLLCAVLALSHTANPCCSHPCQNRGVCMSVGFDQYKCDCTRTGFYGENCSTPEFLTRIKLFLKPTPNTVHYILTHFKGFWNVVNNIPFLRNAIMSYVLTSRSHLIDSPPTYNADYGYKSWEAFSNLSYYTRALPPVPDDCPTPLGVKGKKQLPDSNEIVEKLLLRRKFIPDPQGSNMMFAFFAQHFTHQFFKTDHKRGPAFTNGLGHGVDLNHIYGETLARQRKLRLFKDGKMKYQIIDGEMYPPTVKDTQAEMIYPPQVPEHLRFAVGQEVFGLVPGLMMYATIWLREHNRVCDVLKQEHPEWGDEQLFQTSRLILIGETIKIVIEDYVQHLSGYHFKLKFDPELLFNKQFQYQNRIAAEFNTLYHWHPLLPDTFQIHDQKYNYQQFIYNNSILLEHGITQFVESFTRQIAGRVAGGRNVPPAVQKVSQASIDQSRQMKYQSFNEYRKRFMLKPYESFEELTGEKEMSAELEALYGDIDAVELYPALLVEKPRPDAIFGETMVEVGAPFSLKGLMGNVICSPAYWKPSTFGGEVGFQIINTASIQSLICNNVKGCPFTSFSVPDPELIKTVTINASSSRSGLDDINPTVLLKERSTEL
Description: Inhibition of COX-2 (unknown origin).

For data set [4], the target named is Sodium channel protein type 5 subunit alpha (Homo sapiens, UniProt Q14524). Description: Inhibition of Nav1.5 sodium ion channel (unknown origin).
The target in data set [5] is T2, Alpha-2A adrenergic receptor (Homo sapiens, UniProt P08913).
T2 sequence (P08913 whole entry): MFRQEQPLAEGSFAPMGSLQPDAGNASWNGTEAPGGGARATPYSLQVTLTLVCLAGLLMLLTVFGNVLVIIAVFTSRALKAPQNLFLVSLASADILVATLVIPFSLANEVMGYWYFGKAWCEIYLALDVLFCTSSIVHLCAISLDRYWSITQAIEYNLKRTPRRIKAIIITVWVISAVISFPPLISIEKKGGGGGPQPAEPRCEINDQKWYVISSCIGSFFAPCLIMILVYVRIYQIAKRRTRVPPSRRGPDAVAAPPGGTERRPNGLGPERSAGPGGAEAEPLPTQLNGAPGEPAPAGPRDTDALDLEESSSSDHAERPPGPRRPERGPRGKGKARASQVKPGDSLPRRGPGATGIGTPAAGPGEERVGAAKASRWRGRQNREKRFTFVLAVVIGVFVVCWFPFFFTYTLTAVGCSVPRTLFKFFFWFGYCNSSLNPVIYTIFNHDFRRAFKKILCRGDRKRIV
Description: Inhibition of alpha2A adrenoreceptor (unknown origin).

Data set [6] deals with T3, Kappa-type opioid receptor (Homo sapiens, UniProt P41145). Description: Antagonist activity at KOR (unknown origin). The class given is functional.
Data set [7] in a line: AUC in Sprague-Dawley rat brain at 10 mg/kg, ip measured upto 4 hrs by LC-MS/MS analysis. The class given is ADME, organism-based. The following applies: in vivo.
In data set [8] the target is Sodium-dependent noradrenaline transporter (Homo sapiens, UniProt P23975). The experiment in a line: Inhibition of norepinephrine transporter (unknown origin).
Data set [9] has as its target T4, Mu-type opioid receptor (Homo sapiens, UniProt P35372). Description: Agonist activity at human MOR expressed in CHO-K1 cells assessed as decrease in beta-arrestin 2 recruitment incubated for 90 mins by HitHunter cAMP analysis. It is filed as functional, cell-based. In general terms: Activated receptors often draw arrestin, which recruitment assays turn into a signal.

Data set [10] in a line: Toxicity in ip dosed B6129F1 mouse assessed as precipitated withdrawal symptoms by measuring increase in jumping compound administered for 8 days followed by 10 mg/kg NTX addition and measured for 15 mins. The class given is organism-based. Conditions: in vivo, 192.25 h, time 11535 min.
The nature of data set [11]: Toxicity in Sprague-Dawley rat assessed as respiratory depression by measuring reduction in minute ventilation at 0.03 to 10 mg/kg, sc measured after 30 mins. The class given is organism-based. Further details: scale not given: the % may be the effect or the level left. The following applies: in vivo, 0.5 h, dose 0.03-10 mg/kg.
Data set [12] concerns the target T3, Kappa-type opioid receptor. Description: Antagonist activity at human KOR expressed in CHO-K1 cells assessed as cAMP level preincubated for 15 mins followed by agonist addition and measured after 30 mins by HitHunter cAMP analysis. The class given is functional, cell-based.
Data set [13] concerns the target T4, Mu-type opioid receptor. The experiment in a line: Agonist activity at MOR (unknown origin). It is filed as functional.
A short description of data set [14]: Toxicity in Sprague-Dawley rat assessed as loss of spontaneous motor activity at 0.03 to 10 mg/kg, sc measured after 15 mins. The class given is organism-based. The following applies: in vivo, 0.25 h, dose 0.03-10 mg/kg.
The target in data set [15] is T5, Alpha-1A adrenergic receptor (Homo sapiens, UniProt P35348).
T5 sequence (P35348 whole entry): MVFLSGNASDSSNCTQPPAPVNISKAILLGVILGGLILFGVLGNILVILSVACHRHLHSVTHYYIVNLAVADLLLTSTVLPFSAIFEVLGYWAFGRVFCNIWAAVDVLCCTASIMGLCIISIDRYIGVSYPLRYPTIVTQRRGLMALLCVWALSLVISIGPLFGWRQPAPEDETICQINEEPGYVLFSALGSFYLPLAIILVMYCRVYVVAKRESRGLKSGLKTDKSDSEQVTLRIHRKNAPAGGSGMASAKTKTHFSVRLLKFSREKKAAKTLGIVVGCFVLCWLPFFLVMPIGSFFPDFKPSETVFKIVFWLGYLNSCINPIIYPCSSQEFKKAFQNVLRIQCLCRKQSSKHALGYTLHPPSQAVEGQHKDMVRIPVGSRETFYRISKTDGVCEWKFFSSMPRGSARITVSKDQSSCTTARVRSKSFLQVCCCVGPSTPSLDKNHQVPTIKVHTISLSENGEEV
Description: Inhibition of alpha1A adrenoreceptor (unknown origin).

Data set [16] can be described thus: Toxicity in Sprague-Dawley rat assessed as catelepsy by measuring righting reflex at 10 mg/kg, sc measured after 15 mins. It is filed as organism-based. The following applies: in vivo, 0.25 h.
Data set [17] concerns the target T4, Mu-type opioid receptor. The experiment in a line: Agonist activity at human MOR expressed in CHO-K1 cells assessed as decrease in cAMP level incubated for 30 mins in presence of forskolin by HitHunter cAMP analysis. It is filed as functional, cell-based. For orientation: Changes in cAMP serve as a functional read-out for many G protein-coupled receptors.
The next data set addresses hERG (KCNH2) (Homo sapiens, UniProt Q12809). Description: Inhibition of hERG relative to control. The class given is toxicity. The following applies: read-out: Imax. A general note: Block of hERG is tested as a sign of cardiac risk.
Data set [18] concerns the target Nav1.5 sodium channel (SCN5A) (Homo sapiens, UniProt Q14524). The experiment in a line: Inhibition of Nav1.5 sodium ion channel (unknown origin) relative to control. Conditions: read-out: Imax.

T4 sequence (P35372 whole entry): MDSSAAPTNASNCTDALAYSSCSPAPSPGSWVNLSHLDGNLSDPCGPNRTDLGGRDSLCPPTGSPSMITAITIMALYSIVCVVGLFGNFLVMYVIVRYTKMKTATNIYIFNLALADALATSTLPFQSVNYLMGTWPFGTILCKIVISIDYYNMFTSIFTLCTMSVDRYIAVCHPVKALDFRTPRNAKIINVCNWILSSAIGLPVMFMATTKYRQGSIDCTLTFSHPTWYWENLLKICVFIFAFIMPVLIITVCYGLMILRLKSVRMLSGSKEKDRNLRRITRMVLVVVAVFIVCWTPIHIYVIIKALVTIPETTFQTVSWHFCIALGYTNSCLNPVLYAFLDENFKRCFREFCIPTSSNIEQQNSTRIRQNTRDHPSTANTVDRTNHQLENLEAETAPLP
Sequence of UniProt Q14524 (Q14524 whole entry): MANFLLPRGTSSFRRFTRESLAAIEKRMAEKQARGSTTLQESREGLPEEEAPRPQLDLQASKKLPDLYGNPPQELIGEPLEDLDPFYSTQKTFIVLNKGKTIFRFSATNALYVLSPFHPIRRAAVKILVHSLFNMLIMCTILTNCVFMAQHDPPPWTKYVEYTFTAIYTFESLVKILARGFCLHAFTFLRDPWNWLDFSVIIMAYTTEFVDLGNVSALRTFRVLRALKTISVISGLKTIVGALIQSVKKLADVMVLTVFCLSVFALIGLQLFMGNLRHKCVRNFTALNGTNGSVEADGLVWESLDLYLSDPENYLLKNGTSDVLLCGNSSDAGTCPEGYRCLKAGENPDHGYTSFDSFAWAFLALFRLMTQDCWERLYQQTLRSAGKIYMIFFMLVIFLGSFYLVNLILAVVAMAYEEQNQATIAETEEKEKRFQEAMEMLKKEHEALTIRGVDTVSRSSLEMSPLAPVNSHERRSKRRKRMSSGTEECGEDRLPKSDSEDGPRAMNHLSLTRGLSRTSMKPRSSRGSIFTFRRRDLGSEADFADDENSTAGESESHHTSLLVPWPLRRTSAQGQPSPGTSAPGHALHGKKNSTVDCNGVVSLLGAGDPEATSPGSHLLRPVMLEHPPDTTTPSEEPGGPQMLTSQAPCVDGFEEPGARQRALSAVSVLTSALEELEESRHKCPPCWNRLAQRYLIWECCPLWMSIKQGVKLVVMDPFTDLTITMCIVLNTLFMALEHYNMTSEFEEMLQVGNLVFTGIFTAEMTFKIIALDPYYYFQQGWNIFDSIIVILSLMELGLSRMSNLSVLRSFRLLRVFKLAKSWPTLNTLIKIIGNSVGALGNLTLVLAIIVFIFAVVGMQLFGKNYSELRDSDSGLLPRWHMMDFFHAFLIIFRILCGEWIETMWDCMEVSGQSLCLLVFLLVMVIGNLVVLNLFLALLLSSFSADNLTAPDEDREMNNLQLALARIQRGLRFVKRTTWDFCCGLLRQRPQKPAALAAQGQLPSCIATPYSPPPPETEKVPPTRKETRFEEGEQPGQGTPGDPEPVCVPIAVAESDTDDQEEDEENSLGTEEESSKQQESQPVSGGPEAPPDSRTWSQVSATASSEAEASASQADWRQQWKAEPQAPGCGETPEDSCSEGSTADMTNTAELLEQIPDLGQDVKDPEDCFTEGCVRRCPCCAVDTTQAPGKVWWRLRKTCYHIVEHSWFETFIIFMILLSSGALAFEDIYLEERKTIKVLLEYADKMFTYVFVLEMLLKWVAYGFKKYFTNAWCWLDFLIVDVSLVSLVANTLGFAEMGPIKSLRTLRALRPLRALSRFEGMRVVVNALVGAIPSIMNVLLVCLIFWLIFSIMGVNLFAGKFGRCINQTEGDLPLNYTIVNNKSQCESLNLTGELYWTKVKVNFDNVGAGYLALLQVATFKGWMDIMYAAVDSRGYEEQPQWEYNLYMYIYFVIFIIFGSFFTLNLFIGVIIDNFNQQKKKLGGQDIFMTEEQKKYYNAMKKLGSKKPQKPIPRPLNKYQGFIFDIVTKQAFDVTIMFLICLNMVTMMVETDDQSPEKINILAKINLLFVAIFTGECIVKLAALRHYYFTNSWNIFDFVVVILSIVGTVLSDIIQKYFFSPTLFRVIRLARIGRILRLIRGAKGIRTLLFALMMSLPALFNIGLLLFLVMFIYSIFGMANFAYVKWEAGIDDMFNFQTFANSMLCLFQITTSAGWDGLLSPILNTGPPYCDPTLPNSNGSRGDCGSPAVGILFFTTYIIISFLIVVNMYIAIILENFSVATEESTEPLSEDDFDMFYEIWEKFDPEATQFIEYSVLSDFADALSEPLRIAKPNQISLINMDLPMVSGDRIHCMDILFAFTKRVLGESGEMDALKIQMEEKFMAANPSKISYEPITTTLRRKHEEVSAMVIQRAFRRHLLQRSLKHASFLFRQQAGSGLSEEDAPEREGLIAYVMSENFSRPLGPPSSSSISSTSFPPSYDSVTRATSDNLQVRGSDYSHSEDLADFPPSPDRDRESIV
T3 sequence (P41145 whole entry): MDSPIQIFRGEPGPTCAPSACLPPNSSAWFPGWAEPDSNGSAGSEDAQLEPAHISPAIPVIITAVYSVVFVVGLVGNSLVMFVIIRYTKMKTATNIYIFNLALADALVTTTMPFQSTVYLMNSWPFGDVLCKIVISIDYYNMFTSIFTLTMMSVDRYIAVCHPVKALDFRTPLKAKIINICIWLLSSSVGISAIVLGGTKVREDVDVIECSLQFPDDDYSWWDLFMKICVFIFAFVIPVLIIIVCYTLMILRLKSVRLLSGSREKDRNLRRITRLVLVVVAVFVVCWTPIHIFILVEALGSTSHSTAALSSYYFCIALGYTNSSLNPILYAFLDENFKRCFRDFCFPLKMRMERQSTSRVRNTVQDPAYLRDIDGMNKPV
Sequence of UniProt P23975 (P23975 whole entry): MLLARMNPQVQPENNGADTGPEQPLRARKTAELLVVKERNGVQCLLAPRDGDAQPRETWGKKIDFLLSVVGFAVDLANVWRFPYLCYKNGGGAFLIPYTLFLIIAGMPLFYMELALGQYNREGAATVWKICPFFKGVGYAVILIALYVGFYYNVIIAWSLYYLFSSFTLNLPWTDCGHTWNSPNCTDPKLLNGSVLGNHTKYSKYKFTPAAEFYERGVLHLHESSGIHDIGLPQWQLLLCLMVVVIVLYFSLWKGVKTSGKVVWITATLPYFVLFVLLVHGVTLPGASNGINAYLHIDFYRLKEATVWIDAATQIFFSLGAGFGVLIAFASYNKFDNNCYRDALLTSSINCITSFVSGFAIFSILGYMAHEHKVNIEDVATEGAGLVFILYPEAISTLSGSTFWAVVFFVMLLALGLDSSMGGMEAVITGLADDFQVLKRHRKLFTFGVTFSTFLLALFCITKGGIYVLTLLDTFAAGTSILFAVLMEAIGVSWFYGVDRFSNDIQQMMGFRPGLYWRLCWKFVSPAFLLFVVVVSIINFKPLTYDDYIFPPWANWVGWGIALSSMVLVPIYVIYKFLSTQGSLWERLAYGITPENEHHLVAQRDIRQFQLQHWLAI
Sequence of UniProt Q12809 (Q12809 whole entry): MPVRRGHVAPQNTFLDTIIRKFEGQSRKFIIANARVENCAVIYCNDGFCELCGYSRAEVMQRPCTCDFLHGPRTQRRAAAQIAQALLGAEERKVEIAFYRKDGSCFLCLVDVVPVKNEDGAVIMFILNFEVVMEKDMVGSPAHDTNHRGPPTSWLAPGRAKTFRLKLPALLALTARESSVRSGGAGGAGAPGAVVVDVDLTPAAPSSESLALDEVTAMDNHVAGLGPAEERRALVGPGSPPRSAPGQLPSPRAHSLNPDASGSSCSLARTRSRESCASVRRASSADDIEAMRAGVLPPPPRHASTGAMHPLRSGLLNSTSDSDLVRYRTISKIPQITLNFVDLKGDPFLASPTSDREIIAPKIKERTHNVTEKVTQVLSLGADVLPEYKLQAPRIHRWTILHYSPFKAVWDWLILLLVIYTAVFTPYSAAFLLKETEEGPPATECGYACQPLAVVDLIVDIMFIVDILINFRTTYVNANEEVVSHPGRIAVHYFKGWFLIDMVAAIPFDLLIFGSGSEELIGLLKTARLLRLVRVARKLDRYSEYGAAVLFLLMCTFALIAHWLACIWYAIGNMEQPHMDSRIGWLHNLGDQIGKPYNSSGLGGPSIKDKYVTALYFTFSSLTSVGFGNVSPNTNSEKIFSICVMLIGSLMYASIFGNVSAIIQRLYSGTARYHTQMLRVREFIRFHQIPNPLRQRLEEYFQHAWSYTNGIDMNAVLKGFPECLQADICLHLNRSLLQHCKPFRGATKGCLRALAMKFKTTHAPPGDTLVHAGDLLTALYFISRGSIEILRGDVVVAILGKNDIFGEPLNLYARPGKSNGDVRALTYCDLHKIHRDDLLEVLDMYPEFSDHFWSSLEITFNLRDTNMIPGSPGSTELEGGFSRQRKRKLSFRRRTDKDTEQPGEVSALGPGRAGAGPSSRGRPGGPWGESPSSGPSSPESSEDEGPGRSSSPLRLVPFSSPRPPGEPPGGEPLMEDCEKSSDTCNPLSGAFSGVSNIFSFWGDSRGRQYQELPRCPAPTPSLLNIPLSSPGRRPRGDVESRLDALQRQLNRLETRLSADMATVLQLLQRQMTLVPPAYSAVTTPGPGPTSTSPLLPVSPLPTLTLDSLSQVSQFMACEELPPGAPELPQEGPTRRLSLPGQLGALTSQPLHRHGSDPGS

As usually defined, the Tmax is the time at which the peak concentration occurs. Usually ED50 stands for the midpoint of the dose-response relation. One may read the IC50 as the concentration that inhibits the measured activity by half. For orientation: EC50 means the concentration that produces a half-maximal response. For `Oc1cccc(N2[C@@H]3CC[C@H]2CN(CCCc2ccccc2)C3)c1`, the Tmax in data set [1] stood at 15 min. The ED50 in the data set with Mus musculus is 0.87 mg/kg. In data set [2], the Kp at 4 h was determined as 6.6. Also, the IC50 in data set [3] is 1.06 µM; in [4], 2.3 µM; in [5], 5.45 µM; in data set [6] it was 2.09 µM; in data set [8] it was 5.6 µM; in data set [12], 0.357 µM. Further, in data set [15], the IC50 turned out to be 8.7 µM. Besides, the AUC in [7] is 5929 ng·h/g. Besides, the results for the EC50 on Mu-type opioid receptor [9], on Mu-type opioid receptor [13] and at Mu-type opioid receptor [17] were greater than 50 µM, 0.00168 µM and 0.00039 µM, respectively. Further, the Activity result in data set [10] is on record as “Toxic”; in data set [11], ~ 45%; in data set [14], “Non-Toxic”; in [16], “Non-Toxic”. In addition, the Emax was determined as 68.3% on hERG (KCNH2) and 88.3% in [18].

For the origin of these results see ChEMBL document CHEMBL5506067, “Searching for Synthetic Opioid Rescue Agents: Identification of a Potent Opioid Agonist with Reduced Respiratory Depression” (J Med Chem, 2024).
